# According to article PMC4336329 (PLoS ONE, 2015):
# Out of some 310,000 compounds screened, about 2,200 (0.71%) showed an effect of 50% or more. Effects have a minus sign here. The list shows a part of the results.
# Target: human ether-à-go-go-related gene (hERG) potassium channel (human, UniProt Q12809)
# Test: primary screen, population patch clamp on CHO cells stably expressing hERG
# human ether-à-go-go-related gene (hERG) potassium channel, sequence (Q12809 whole entry, looked up): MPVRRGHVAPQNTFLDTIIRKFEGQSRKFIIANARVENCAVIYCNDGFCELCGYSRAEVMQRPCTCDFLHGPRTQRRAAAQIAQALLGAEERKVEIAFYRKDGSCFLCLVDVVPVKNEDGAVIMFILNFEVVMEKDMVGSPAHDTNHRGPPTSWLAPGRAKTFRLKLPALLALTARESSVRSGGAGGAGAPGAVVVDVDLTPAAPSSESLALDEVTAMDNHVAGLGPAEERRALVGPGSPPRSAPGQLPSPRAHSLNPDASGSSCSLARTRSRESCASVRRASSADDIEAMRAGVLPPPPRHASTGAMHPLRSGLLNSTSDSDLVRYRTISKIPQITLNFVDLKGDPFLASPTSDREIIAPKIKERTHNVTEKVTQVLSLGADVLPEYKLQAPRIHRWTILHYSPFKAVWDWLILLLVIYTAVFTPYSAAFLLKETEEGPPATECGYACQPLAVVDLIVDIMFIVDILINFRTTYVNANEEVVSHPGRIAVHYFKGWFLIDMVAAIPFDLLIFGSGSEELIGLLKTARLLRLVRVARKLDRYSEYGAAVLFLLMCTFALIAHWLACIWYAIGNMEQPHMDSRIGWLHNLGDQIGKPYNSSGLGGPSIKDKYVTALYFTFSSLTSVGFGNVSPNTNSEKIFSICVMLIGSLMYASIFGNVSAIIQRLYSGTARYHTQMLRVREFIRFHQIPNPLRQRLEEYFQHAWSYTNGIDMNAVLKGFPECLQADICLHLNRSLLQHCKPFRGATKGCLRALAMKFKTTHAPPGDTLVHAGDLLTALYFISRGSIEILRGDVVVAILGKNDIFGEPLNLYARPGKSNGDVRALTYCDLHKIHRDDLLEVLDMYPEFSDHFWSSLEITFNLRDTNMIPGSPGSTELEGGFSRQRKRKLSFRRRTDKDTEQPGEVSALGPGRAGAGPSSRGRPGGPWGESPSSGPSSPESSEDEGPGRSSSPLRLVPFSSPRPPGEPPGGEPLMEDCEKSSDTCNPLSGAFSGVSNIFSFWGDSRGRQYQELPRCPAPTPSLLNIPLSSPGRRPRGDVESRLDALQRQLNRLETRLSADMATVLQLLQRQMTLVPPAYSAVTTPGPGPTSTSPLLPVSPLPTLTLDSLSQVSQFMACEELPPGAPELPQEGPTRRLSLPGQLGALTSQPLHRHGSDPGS
row,SMILES,"hERG current change (%, negative = inhibition) at 1uM [%]"
1,O=S(=O)(Nc1cc(Cl)ccc1N1CCOCC1)c1ccccc1Cl,7.73
2,Cc1c(NC(=O)CN2CCN(c3ccc(O)cc3)CC2)c(=O)n(-c2ccccc2)n1C,-1.89
3,CCN1CCCC(OC(=O)Nc2ccccc2)C1 (stereo not drawn),6.59
4,COc1ccc(N2CCN(C(=O)CCS(=O)(=O)c3cccc4nsnc34)CC2)cc1,0.263
5,COc1ccc(/C(C)=N/NC(=O)c2nnn(-c3nonc3N)c2-c2cccs2)cc1,-0.469
6,N=c1c(S(=O)(=O)c2ccc(Br)cc2)cc2c(=O)n3ccccc3nc2n1C1CCCC1,14.3
7,CCc1nnc(NC(=O)CSc2nc3c(C)cccc3[nH]2)s1,11.7
8,CCOc1ccccc1N(C(=O)c1snc(C(N)=O)c1N)C(C(=O)NC1CCCC1)c1cccs1 (stereo not drawn),1.67
9,O=C(COc1ccc(Cl)cc1)N1CCN(c2cccc(C(F)(F)F)c2)CC1,-0.661
10,O=C(NN=C1CCCC1)c1ccccc1OCc1ccc(Cl)cc1,1.89
11,Cc1ccc(S(=O)(=O)NNC(=O)C(O)(c2ccccc2C)c2ccccc2C)cc1,11.7
12,O=S(=O)(c1cccc2cccnc12)N1CCN(Cc2ccc3c(c2)OCO3)CC1,11.4
13,CCc1cc(=O)oc2c(C)c(OC(C)C(=O)NCCCN3CCOCC3)ccc12 (stereo not drawn),7.2
14,COc1cc(/C=N/Nc2ccc(F)cc2F)cc(OC)c1O,8.43
15,C/C(Cl)=C\Cn1c(O)c(N=O)c2ccccc21,4.4
16,COc1ccccc1C(=O)C1CCCN(C(=O)c2cccnc2SC)C1 (stereo not drawn),12.5
17,Cc1noc(C)c1COC(=O)c1cc2ccccc2cc1O,5.86
18,CC(=O)c1ccc(N2CCN(C(=O)C3CCCN(c4ncnc5c4nc4n5CCCCC4)C3)CC2)cc1 (stereo not drawn),-17.9
19,Cc1nc2ccc(S(=O)(=O)NCC(=O)N3CCc4ccccc4C3)cc2s1,11
20,CCOCCCn1cnc2c(c1=O)c1nc3ccccc3nc1n2-c1ccc(C)cc1,-6.46
21,CCCN1CNC(=S)N(CC2CCCO2)C1 (stereo not drawn),13.2
22,Cc1cccc(C(=O)N[C@H](C(=O)NCCc2ccc(S(N)(=O)=O)cc2)C(C)C)c1,0.633
23,Cc1cn([C@@H](CCCCN)C(=O)NCCCCCCCCCCC(=O)N2CCNCC2)nn1,8.81

row,SMILES,"hERG current change (%, negative = inhibition) at 1uM [%]"
1,CC(C)CCNC(=O)CN(C(=O)Cn1nnc(-c2ccc(F)cc2)n1)C1CCCC1,8.91
2,COc1cc(/C=N/NC(=O)C[n+]2ccccc2)cc(OC)c1OC.[Cl-],7.2
3,CCOC(=O)C1CCN(C(=O)Cn2nc(C)n3c(cc4cc(F)ccc43)c2=O)CC1,-15.5
4,CCOC(=O)N1CCN(C(=O)CN(CC)S(=O)(=O)c2cc(C)ccc2OC)CC1,7.71
5,CCCc1nnc(SCC(=O)NC2CCCCC2)n1CCOC,15.2
6,Clc1ccc(Nc2ccccc2)nn1,15.4
7,COc1ccc(CN2CCCC(CNC(=O)c3ccc(F)cc3)C2)c(C)c1C (stereo not drawn),-46.2
8,CCCCOC(=O)C1C2C=CC3(CN(CCc4ccccc4)C(=O)C13)O2 (stereo not drawn),6.67
9,O=c1oc2ccccc2cc1-c1cn2cccnc2n1,13.8
10,O=c1oc2ccccc2nc1/C=C(O)/C=C/c1ccc(F)cc1,6.52
11,C=CCn1c(O)c(N=Nc2ccccc2O)c2ccccc21,7.58
12,CCOC(=O)c1cc(NC(=O)c2ccccc2)c(=O)n2c1oc1ccccc12,6.29
13,COc1ccc(C(=O)NC2CC2)cc1OC1CCN(Cc2ccccc2O)CC1,-91.5
14,CC(C)/C=C/C(=O)N1CCC(N2CCC(C(=O)N3CCOCC3)CC2)CC1,7.31
15,COC(=O)CCCCCNC(=S)Nc1ccc2[nH]c(=O)[nH]c2c1,5.61
16,CC(=O)O[C@@H]1[C@H]2[C@@H](C[C@@H](C)[C@@H]3C=CC(=O)[C@@]13C)OC(=O)[C@@H]2C,10.1
17,COCCCNC(=S)NNC(=O)c1cc(C2CC2)nc2ccccc12,14.7
18,O=C(Cc1ccccn1)c1ccc(F)cc1,12.4
19,N#CC1=C(N)OC2=C(C(=O)CCC2)C1c1cc2c(cc1Br)OCO2 (stereo not drawn),15
20,O=C(Nc1ccccc1N1CCCCC1)c1ccc(-c2cc(Cl)ccc2Cl)o1,12.6
21,Cl.O=C(O)CC1NCCc2ccccc21 (stereo not drawn),12.4
22,CC(C)(C)NC(=O)C(c1ccncc1)N(C(=O)c1csnn1)C1CC1 (stereo not drawn),7.02
23,Clc1ccc(Oc2nc(Oc3ccc(Cl)cc3)nc(N3CCOCC3)n2)cc1,-6.07

row,SMILES,"hERG current change (%, negative = inhibition) at 1uM [%]"
1,COC(=O)C1=C(c2ccc(F)cc2F)C[C@@H]2CC[C@H]1N2C(=O)NC1CC1,11.2
2,O=C(Cc1ccccc1)Nc1ccc(SC(F)F)cc1,2.98
3,O=C(Oc1ccccc1C(=O)N1CCOCC1)c1ccc(Br)cc1,3.58
4,O=C(CCN1C(=O)c2cccc([N+](=O)[O-])c2C1=O)Nc1nccs1,4.48
5,S=c1[nH]ncn2c1cc1oc3ccccc3c12,14.1
6,O=C(CC1SC(N2CCCC2)=NC1=O)Nc1ccc(C(=O)N2CCN(c3cccc(Cl)c3)CC2)cc1 (stereo not drawn),19.5
7,CC(Sc1nnnn1C1CCCCC1)C(=O)O (stereo not drawn),13.1
8,O=C(Nc1ccc(S(=O)(=O)Nc2nccs2)cc1)c1ccc(=O)[nH]c1,3.43
9,Cc1cc(C)c(C#N)c(SCC(=O)c2cccs2)n1,-3.08
10,CCc1ccc(C(=O)NNc2ccc(S(N)(=O)=O)cc2)cc1,13.3
11,C=CCSc1nc(C)c(CC=C)c(=O)[nH]1,14.1
12,CC(=O)c1ccc(OCCCC(=O)OCC(=O)N2CCN(c3ccccc3)CC2)cc1,15.7
13,Cc1ncoc1C(=O)Nc1nccs1,3.65
14,CCCCN1CCc2c([nH]c3ccccc23)C1=O,8.76
15,O=C(Nc1ncc([N+](=O)[O-])s1)c1ccc2c(c1)OCO2,3.38
16,Cc1ccc(OCC(=O)NCc2n[nH]c(=O)c3ccccc23)cc1,1.01
17,Cc1cccc(NC(=O)c2oc3c(c2C)C(=O)CC(C)(C)C3)n1,15
18,COc1ccc(Cl)cc1NC(=O)N1CCC(C)CC1,7.62
19,O=C(Nc1ccc(Cl)c(-c2nc3ccccc3[nH]2)c1)c1cccnc1,-16
20,Nc1[nH]c(=S)nc2nc(-c3ccccc3)c(-c3ccccc3)nc12,10.5
21,COC(=O)c1ccc2c(c1)C(C)(C)C(/C=C/c1ccc(O)cc1)=[N+]2C.[I-],-18.6
22,Cc1cc(C)cc(N(CC(=O)N2CCC(C)CC2)S(C)(=O)=O)c1,-6.55
23,COc1ccc(NC(=O)C2CCN(C(=O)c3cccs3)CC2)cc1OC,-0.161

row,SMILES,"hERG current change (%, negative = inhibition) at 1uM [%]"
1,O=C(Nc1ccc2c(c1)OCO2)c1cccc2c1C(=O)N(Cc1cccnc1)C2,-6.89
2,N#Cc1c2n(c3c(=O)n(Cc4ccccc4Cl)cnc13)CCCC2,-2.62
3,CC(=O)c1cnc(Nc2ccccc2)s1,13.8
4,COCCSc1nnc(-c2cnccn2)o1,12.7
5,CCCN(CCC)CCCNC(=O)Cn1cnc2sc(C)c(S(=O)(=O)N3CCCCC3)c2c1=O,11.8
6,C=COCCNC(=S)Nc1cccc(Cl)c1,8.15
7,Cc1cc(C)cc(NC(=S)NCCN2CCOCC2)c1,3.61
8,Cn1c(=O)[nH]c(=O)c2c1nc(Br)n2CCSc1ncccn1,12
9,CC1(C)CC(O)C(CCC(O)c2ccccc2)C(C)(C)N1 (stereo not drawn),11.9
10,O=C(COC(=O)COc1ccc(Cl)cc1)NC1CCCC1,11.8
11,CC(=O)O/N=C(\N)Cc1ccc(-c2csnn2)cc1,12.5
12,c1ccc2c(Nc3nc4c(s3)CCCC4)cccc2c1,3.89
13,O=C(CSc1ccc(-c2ccc(-n3cccn3)cc2)nn1)Nc1ccc([N+](=O)[O-])cc1,15
14,Cc1nc2ccc(NC(=O)COc3ccccc3C)cc2s1,8.51
15,Oc1cc2ccccc2cc1-c1n[nH]c(=S)o1,8.88
16,O=C(NCC1CCN(C(=O)c2ccc([N+](=O)[O-])cc2)CC1)c1ccc([N+](=O)[O-])cc1,-74.6
17,CCCCNC(=O)c1ccc(C)c(NC(=O)C2=C(C)OCCS2)c1,22.2
18,COc1cccc(/C=C/C(=O)OC(C)C(=O)Nc2c(C)n(C)n(-c3ccccc3)c2=O)c1 (stereo not drawn),7.77
19,Cc1ccc(NC(=O)CN2CCN(c3ccccn3)CC2)c(Cl)c1,-0.435
20,CC1CCN(S(=O)(=O)c2ccc(Oc3ccc([N+](=O)[O-])cc3)cc2)CC1,-12.7
21,CCN(CC(=O)NC(=O)NCc1ccccc1)CC(=O)Nc1cc(Cl)ccc1C,0.294
